Measurements: paper PMC13541613
The entries are a selection whose mix differs from that of the whole data set. At the low end of the ranking the order means little.

The sequences below were run against ZNF721 DBD1 (UniProt Q8TF20-2) (assay: HT-SELEX). Details: 20 mM HEPES pH 7, 140 mM KCl, 5 mM NaCl, 1 mM K2HPO4, 2 mM MgSO4, 100 uM EGTA, ZnSO4, 0.1% Tween20; room temperature, 1 h; high values mean tight binding; double strand, one strand shown.
GAAAAACAGC was tested, and the binding signal (relative 10-mer count) was 0.000413. ACAGTGTCTC was tested, and the binding signal (relative 10-mer count) was 0.000229. AAAACAGCGT was tested, and the binding signal (relative 10-mer count) was 0.00055. For AACACTGCTT, the binding signal (relative 10-mer count) was 0.000505. In the case of AAAAACAGGG, the binding signal (relative 10-mer count) is reported as 0.000596. Sequence ACAAAGCAGC has a binding signal (relative 10-mer count) of 0.000642. With AACAAACAGC the binding signal (relative 10-mer count) was 0.000642. With AAAAACAGCG the binding signal (relative 10-mer count) was 0.000505. Work on AAAAACAGAA yielded a binding signal (relative 10-mer count) of 0.000275. In the case of AACAAGCAGT, the binding signal (relative 10-mer count) is reported as 0.017. Work on AAACAGCAGC yielded a binding signal (relative 10-mer count) of 0.000321. AGGATACACT gave a binding signal (relative 10-mer count) of 0.0907. Sequence AAAAAGCAGG has a binding signal (relative 10-mer count) of 0.000734. Work on AGAAAACAGC yielded a binding signal (relative 10-mer count) of 0.000321. For AAAAGCAGCG, the binding signal (relative 10-mer count) was 0.000917. For CAAAGCAGCG, the binding signal (relative 10-mer count) was 0.000505. AAAAGCAGTA was tested, and the binding signal (relative 10-mer count) was 0.0204. Work on AAAACAGCGC yielded a binding signal (relative 10-mer count) of 0.000459. AAAACAGTGT was tested, and the binding signal (relative 10-mer count) was 0.00055. Work on AAACAGGGGT yielded a binding signal (relative 10-mer count) of 0.000596. For CCCACCCGAC, the binding signal (relative 10-mer count) was 0.00449. Sequence ACAGTGTATC has a binding signal (relative 10-mer count) of 0.000413. ACGAAAACAG gave a binding signal (relative 10-mer count) of 0.000642. AACAGTGTAT was tested, and the binding signal (relative 10-mer count) was 0.000413. Sequence AAAGAAACAG has a binding signal (relative 10-mer count) of 0.000138. For AAACAGCACT, the binding signal (relative 10-mer count) was 0.000183. For ACAGCATATC, the binding signal (relative 10-mer count) was 0.000367. AAAAACAGTC showed a binding signal (relative 10-mer count) of 0.000505. With ACGCTGTTTC the binding signal (relative 10-mer count) was 0.000459. For ACCAAAAAAA, the binding signal (relative 10-mer count) was 0.00904. ACCGCCCCAC was tested, and the binding signal (relative 10-mer count) was 0.0033. With AAAAAAAAGG the binding signal (relative 10-mer count) was 0.00477. Work on CCGCCCACCA yielded a binding signal (relative 10-mer count) of 0.00477. In the case of ACAAAACAGT, the binding signal (relative 10-mer count) is reported as 0.000505. AGAAAAACAG showed a binding signal (relative 10-mer count) of 0.000321. CCCCTCGCCC gave a binding signal (relative 10-mer count) of 0.00665. Work on CAGGGTTTCC yielded a binding signal (relative 10-mer count) of 0.000183. Sequence CGACCCACCC has a binding signal (relative 10-mer count) of 0.00477.
